Laboratory results published in the supplement of paper PMC4604168 (melanoma cell lines).
The other results are listed elsewhere or left out. Many values rest on one well or one pass, so single values are uncertain.

System: WM3619
Assay: cell count relative to DMSO control; melanoma cells; higher = more viable cells
Conditions: library dose: low library concentration; 72 h
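Further: cell number obtained by counting DAPI-stained nuclei in high-throughput microscope images with image analysis software, screen run in 1,536-well plates.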

Q: Which cell count does the source give for `O=C(O)c1ccc2c(c1)nc(Nc1cccc(Cl)c1)c1ccncc12` + CC(C)CCN1c2nc(Nc3cc(F)c(O)c(F)c3)ncc2N(C)C(=O)C1C [BID1870] (first compound 0.4 µM, partner dose 0.2 µM) here?
A: 112%

Q: With `O=C(Nc1cc(C(F)(F)F)cc(C(F)(F)F)c1)c1cc(Cl)ccc1O` + CCCCCCCCCCCCCCCCCCOP(=O)([O-])OC1CC[N+](C)(C)CC1 [Perifosine] (first compound 0.016 µM, partner dose 0.4 µM) as the molecule, how does the cell count read?
A: 88.9%

Q: With `O=C(O)c1ccc2c(c1)nc(Nc1cccc(Cl)c1)c1ccncc12` + C=C(c1ccc(C(=O)O)cc1)c1cc2c(cc1C)C(C)(C)CCC2(C)C [Bexarotene] (first compound 0.4 µM, partner dose 2 µM) as the molecule, how does the cell count read?
A: 93.3%

Q: Which cell count does the source give for `O=C(O)c1ccc2c(c1)nc(Nc1cccc(Cl)c1)c1ccncc12` + N#Cc1c(O)c2c(-c3ccc(-c4ccccc4O)cc3)csc2[nH]c1=O [A769662] (first compound 0.4 µM, partner dose 2 µM) here?
A: 114%

Q: With `O=C(Nc1cc(C(F)(F)F)cc(C(F)(F)F)c1)c1cc(Cl)ccc1O` + O=c1[nH]nc(Sc2ncc([N+](=O)[O-])s2)n1-c1ccc2c(c1)OCCO2 [BI78D3] (first compound 0.016 µM, partner dose 0.2 µM) as the molecule, how does the cell count read?
A: 93.3%

Q: `O=C(O)[C@@H]1[O][Sb](=[O])([O][Sb]2(=[O])[O][C@H]([C@H](O)CO)[C@H](O)[C@H](C(=O)O)[O]2)[O][C@H]([C@H](O)CO)[C@@H]1O` (stereo partly specified) [stibogluconate] + COc1cc2ncnc(Nc3ccc(Oc4ccccc4)cc3)c2cc1OC [SrcI1] (first compound 2 µM, partner dose 2 µM) was tested. Which cell count did it give?
A: 117%

Q: `O=C(O)[C@@H]1[O][Sb](=[O])([O][Sb]2(=[O])[O][C@H]([C@H](O)CO)[C@H](O)[C@H](C(=O)O)[O]2)[O][C@H]([C@H](O)CO)[C@@H]1O` (stereo partly specified) [stibogluconate] + CCCS(=O)(=O)Nc1ccc(F)c(C(=O)c2c[nH]c3ncc(Cl)cc23)c1F [PLX4720] (first compound 2 µM, partner dose 0.08 µM) was tested. Which cell count did it give?
A: 92.2%

Q: With `O=C(Nc1cc(C(F)(F)F)cc(C(F)(F)F)c1)c1cc(Cl)ccc1O` + COc1ccc(C2=N[C@@H](c3ccc(Cl)cc3)[C@@H](c3ccc(Cl)cc3)N2C(=O)N2CCNC(=O)C2)c(OC(C)C)c1 [Nutlin-3] (first compound 0.016 µM, partner dose 0.1 µM) as the molecule, how does the cell count read?
A: 106%

Q: How did the cell count turn out when `O=C(O)[C@@H]1[O][Sb](=[O])([O][Sb]2(=[O])[O][C@H]([C@H](O)CO)[C@H](O)[C@H](C(=O)O)[O]2)[O][C@H]([C@H](O)CO)[C@@H]1O` (stereo partly specified) [stibogluconate] + CCN(CC)CCCCNc1ncc2cc(-c3cc(OC)cc(OC)c3)c(NC(=O)NC(C)(C)C)nc2n1 [PD173074] (first compound 2 µM, partner dose 0.1 µM) was run?
A: 109%

Q: With `Cc1cc(N2CCOCC2)cc2[nH]c(-c3c(NC[C@@H](O)c4cccc(Cl)c4)cc[nH]c3=O)nc12` + CC(C)CCN1c2nc(Nc3cc(F)c(O)c(F)c3)ncc2N(C)C(=O)C1C [BID1870] (first compound 0.2 µM, partner dose 0.2 µM) as the molecule, how does the cell count read?
A: 94.7%

Q: Which cell count does the source give for `O=C(Nc1cc(C(F)(F)F)cc(C(F)(F)F)c1)c1cc(Cl)ccc1O` + CC(C)(C)c1cnc(CSc2cnc(NC(=O)C3CCNCC3)s2)o1 [SNS-032] (first compound 0.016 µM, partner dose 0.01 µM) here?
A: 97.6%

Q: For `O=C(O)[C@@H]1[O][Sb](=[O])([O][Sb]2(=[O])[O][C@H]([C@H](O)CO)[C@H](O)[C@H](C(=O)O)[O]2)[O][C@H]([C@H](O)CO)[C@@H]1O` (stereo partly specified) [stibogluconate] + Cn1c(Nc2ccc(C(F)(F)F)cc2)nc2cc(Oc3ccnc(-c4ncc(C(F)(F)F)[nH]4)c3)ccc21 [CHIR265] (first compound 2 µM, partner dose 0.08 µM), which cell count is on record?
A: 89.5%

Q: For `O=C(Nc1cc(C(F)(F)F)cc(C(F)(F)F)c1)c1cc(Cl)ccc1O` + COc1cc2ncnc(Nc3ccc(Oc4ccccc4)cc3)c2cc1OC [SrcI1] (first compound 0.016 µM, partner dose 2 µM), which cell count is on record?
A: 94.2%

Q: Which cell count does the source give for `O=C(Nc1ccccc1)c1cc([N+](=O)[O-])ccc1Cl` + N#Cc1c(O)c2c(-c3ccc(-c4ccccc4O)cc3)csc2[nH]c1=O [A769662] (first compound 2 µM, partner dose 2 µM) here?
A: 88%

Q: Which cell count does the source give for `Cc1cc(N2CCOCC2)cc2[nH]c(-c3c(NC[C@@H](O)c4cccc(Cl)c4)cc[nH]c3=O)nc12` + COc1ccc2c(c1)CCC1C2CCC2(C)C(NCCCCCCN3C(=O)C=CC3=O)CCC12 [U73122] (first compound 0.2 µM, partner dose 0.4 µM) here?
A: 102%

Q: Which cell count does the source give for `O=C(O)c1ccc2c(c1)nc(Nc1cccc(Cl)c1)c1ccncc12` + c1cc(-c2cnn3cc(-c4ccc(OCCN5CCCCC5)cc4)cnc23)ccn1 [Dorsomorphin] (first compound 0.4 µM, partner dose 0.4 µM) here?
A: 101%

Q: `O=C(Nc1cc(C(F)(F)F)cc(C(F)(F)F)c1)c1cc(Cl)ccc1O` + CCN(CC)CCNC(=O)c1c(C)[nH]c(/C=C2\C(=O)Nc3ccc(F)cc32)c1C [sunitinib] (first compound 0.016 µM, partner dose 0.4 µM) was tested. Which cell count did it give?
A: 98.7%

Q: How did the cell count turn out when `Cc1cc(N2CCOCC2)cc2[nH]c(-c3c(NC[C@@H](O)c4cccc(Cl)c4)cc[nH]c3=O)nc12` + COc1cc2ncnc(Nc3ccc(Oc4ccccc4)cc3)c2cc1OC [SrcI1] (first compound 0.2 µM, partner dose 2 µM) was run?
A: 97.2%

Q: `O=C(Nc1ccccc1)c1cc([N+](=O)[O-])ccc1Cl` + COc1cc(N2CCC(N3CCN(C)CC3)CC2)ccc1Nc1ncc(Cl)c(Nc2ccccc2S(=O)(=O)C(C)C)n1 [NVP-TAE684] (first compound 2 µM, partner dose 0.08 µM) was tested. Which cell count did it give?
A: 101%

Q: Which cell count does the source give for `O=C(Nc1cc(C(F)(F)F)cc(C(F)(F)F)c1)c1cc(Cl)ccc1O` + NC(=O)Nc1cc(-c2cccc(F)c2)sc1C(=O)N[C@H]1CCCNC1 [AZD7762] (first compound 0.016 µM, partner dose 0.02 µM) here?
A: 77.6%

Q: For `Cn1nnc2c(C(N)=O)ncn2c1=O` [temozolomide] + O=C(Nc1cccc(Cl)c1)Nc1ncc(CCNc2ncnc3ccsc23)s1 [SNS314] (first compound 2 µM, partner dose 0.0008 µM), which cell count is on record?
A: 80.6%

Q: How did the cell count turn out when `O=C(O)c1ccc2c(c1)nc(Nc1cccc(Cl)c1)c1ccncc12` + O=C(O)c1ccc(-c2c[nH]c3ncc(-c4ccccc4)cc23)cc1C1CCCC1 [GSK650394] (first compound 0.4 µM, partner dose 0.16 µM) was run?
A: 118%

Q: How did the cell count turn out when `O=C(Nc1cc(C(F)(F)F)cc(C(F)(F)F)c1)c1cc(Cl)ccc1O` + OCc1c[nH]c2ccccc12 [Indole-3-carbinol] (first compound 0.016 µM, partner dose 0.8 µM) was run?
A: 85.6%

Q: How did the cell count turn out when `O=C(O)[C@@H]1[O][Sb](=[O])([O][Sb]2(=[O])[O][C@H]([C@H](O)CO)[C@H](O)[C@H](C(=O)O)[O]2)[O][C@H]([C@H](O)CO)[C@@H]1O` (stereo partly specified) [stibogluconate] + C[C@]1(c2nc3c(C(N)=O)cccc3[nH]2)CCCN1 [Veliparib] (first compound 2 µM, partner dose 1.4 µM) was run?
A: 103%

Q: Which cell count does the source give for `O=C(Nc1cc(C(F)(F)F)cc(C(F)(F)F)c1)c1cc(Cl)ccc1O` + O=C(CCCCCCC(=O)Nc1ccccc1)NO [vorinostat] (first compound 0.016 µM, partner dose 0.08 µM) here?
A: 98.4%

Q: Which cell count does the source give for `O=C(Nc1cc(C(F)(F)F)cc(C(F)(F)F)c1)c1cc(Cl)ccc1O` + CC1(C)NC(=O)N(c2ccc([N+](=O)[O-])c(C(F)(F)F)c2)C1=O [nilutamide] (first compound 0.016 µM, partner dose 1 µM) here?
A: 118%

Q: `O=C(O)c1ccc2c(c1)nc(Nc1cccc(Cl)c1)c1ccncc12` + OCc1c[nH]c2ccccc12 [Indole-3-carbinol] (first compound 0.4 µM, partner dose 0.8 µM) was tested. Which cell count did it give?
A: 90.9%

Q: Which cell count does the source give for `Cn1nnc2c(C(N)=O)ncn2c1=O` [temozolomide] + COc1cc(Nc2ncc(F)c(Nc3ccc4c(n3)NC(=O)C(C)(C)O4)n2)cc(OC)c1OC [Tamatinib] (first compound 2 µM, partner dose 0.4 µM) here?
A: 83.3%

Q: With `Cc1cc(N2CCOCC2)cc2[nH]c(-c3c(NC[C@@H](O)c4cccc(Cl)c4)cc[nH]c3=O)nc12` + CCN(CC)CCCCNc1ncc2cc(-c3cc(OC)cc(OC)c3)c(NC(=O)NC(C)(C)C)nc2n1 [PD173074] (first compound 0.2 µM, partner dose 0.1 µM) as the molecule, how does the cell count read?
A: 88.3%

Q: `Cc1cc(N2CCOCC2)cc2[nH]c(-c3c(NC[C@@H](O)c4cccc(Cl)c4)cc[nH]c3=O)nc12` + CCc1ccc(CCOc2ccc(CC3SC(=O)NC3=O)cc2)nc1 [pioglitazone] (first compound 0.2 µM, partner dose 2 µM) was tested. Which cell count did it give?
A: 88%

Q: For `O=C(O)c1ccc2c(c1)nc(Nc1cccc(Cl)c1)c1ccncc12` + COCC[n+]1c2c(n(Cc3cnccn3)c1C)C(=O)c1ccccc1C2=O [YM155] (first compound 0.4 µM, partner dose 0.0004 µM), which cell count is on record?
A: 101%
